About 2,200 (0.71%) of roughly 310,000 compounds showed an effect of 50% or more. Effects have a minus sign here. The list shows a part of the results.
These molecules were tested against human ether-à-go-go-related gene (hERG) potassium channel (human, UniProt Q12809) (assay: primary screen, population patch clamp on CHO cells stably expressing hERG).
Sequence of human ether-à-go-go-related gene (hERG) potassium channel (Q12809 whole entry, looked up): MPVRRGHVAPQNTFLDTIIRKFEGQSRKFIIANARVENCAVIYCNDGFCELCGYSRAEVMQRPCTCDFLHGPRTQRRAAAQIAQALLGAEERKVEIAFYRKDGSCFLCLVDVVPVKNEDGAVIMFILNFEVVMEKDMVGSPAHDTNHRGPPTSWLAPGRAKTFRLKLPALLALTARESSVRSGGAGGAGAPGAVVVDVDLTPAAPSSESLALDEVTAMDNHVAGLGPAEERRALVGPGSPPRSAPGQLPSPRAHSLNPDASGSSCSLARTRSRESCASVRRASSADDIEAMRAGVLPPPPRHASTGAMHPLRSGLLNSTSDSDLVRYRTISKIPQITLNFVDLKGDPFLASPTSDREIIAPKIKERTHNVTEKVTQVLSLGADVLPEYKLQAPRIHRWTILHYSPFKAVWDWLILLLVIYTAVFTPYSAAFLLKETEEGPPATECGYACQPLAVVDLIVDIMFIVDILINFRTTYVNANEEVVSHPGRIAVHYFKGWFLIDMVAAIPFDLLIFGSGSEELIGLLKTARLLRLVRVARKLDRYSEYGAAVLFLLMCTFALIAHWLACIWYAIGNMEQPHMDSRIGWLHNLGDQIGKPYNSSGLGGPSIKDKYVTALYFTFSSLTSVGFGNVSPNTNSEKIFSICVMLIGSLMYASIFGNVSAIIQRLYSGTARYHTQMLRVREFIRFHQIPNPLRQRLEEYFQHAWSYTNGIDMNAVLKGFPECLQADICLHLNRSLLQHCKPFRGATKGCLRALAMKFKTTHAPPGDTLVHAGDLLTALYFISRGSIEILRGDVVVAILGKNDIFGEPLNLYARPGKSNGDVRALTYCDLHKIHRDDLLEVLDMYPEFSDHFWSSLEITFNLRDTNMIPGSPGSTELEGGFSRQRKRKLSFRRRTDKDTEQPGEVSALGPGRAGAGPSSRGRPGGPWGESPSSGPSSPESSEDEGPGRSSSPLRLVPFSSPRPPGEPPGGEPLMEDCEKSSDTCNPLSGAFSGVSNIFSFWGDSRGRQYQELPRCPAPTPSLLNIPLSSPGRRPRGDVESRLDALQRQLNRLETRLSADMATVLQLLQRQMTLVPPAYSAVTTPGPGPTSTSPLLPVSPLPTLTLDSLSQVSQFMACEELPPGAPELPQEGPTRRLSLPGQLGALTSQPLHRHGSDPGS

SMILES	hERG current change (%, negative = inhibition) at 1uM [%]
O=C(Nc1ccc(N2CCOCC2)cc1)c1cn2ccccc2n1	6.95
CCOP(=O)(OCC)c1nc(-c2ccccc2Cl)oc1N1CCOCC1	17.2
COc1ccccc1C(C)Nc1ccc(S(=O)(=O)N2CCN(C)CC2)cc1[N+](=O)[O-] (stereo not drawn)	13.5
CCNc1nc(SCC(=O)Nc2ccc(Cl)c(Cl)c2)nc(N2CCOCC2)n1	10.5
CN(Cc1ccco1)C(=O)c1ccc(CNS(=O)(=O)c2ccc3c(c2)C(C)(C)C(=O)N3C)cc1	2.46
COc1ccc(C2/C(=C(/O)c3ccccc3)C(=O)C(=O)N2CC(C)O)c(OC)c1 (stereo not drawn)	-5.36
CC(C)=C1SC(N2CCN(c3cccc(C(F)(F)F)c3)CC2)=NC1=O	4.27
Cn1cc(Cl)c(C(=O)Nc2cnn(Cc3ccc(F)cc3)c2)n1	-3.91
COC(=O)c1c(NC(=O)C2(C)Cc3ccccc3C(=O)O2)sc2c1CCCC2 (stereo not drawn)	16.2
Cc1cc(NC(=O)/C=C\C(=O)O)c([N+](=O)[O-])cc1C	13.1
CCCCC(=O)OCC(=O)c1ccc(OCC)cc1	6.76
COc1cc(NC(=O)c2ccnnc2)cc(C(=O)Nc2cccc(C(F)(F)F)c2)c1	5.61
CCOC(=O)C(C)CC(C)C(=O)N1CCOCCN(C(=O)C(C)CC(C)C(=O)OCC)CCOCC1 (stereo not drawn)	-6.34
Cc1ccc2c(c1)CCCN2N=O	9.51
COC(=O)COc1nsnc1N1CCOCC1	3.27
COc1ccccc1N1CCN(Cc2nc(N)nc(Nc3ccccc3)n2)CC1	-33.8
O=C(NC(=S)NC1CCSC1=O)c1ccccc1Cl (stereo not drawn)	7.03
CCOc1ccc(N=Nc2cc(C(C)C)ccc2O)cc1	7.08
C/C(CCC12CC3CC(CC(C3)C1)C2)=N\NC(N)=S	18.2
O=C1N=C(N2CCOCC2)S/C1=C/c1ccc(-c2ccccc2Cl)o1	8.95
COCCSc1ccccc1C(=O)Nc1cc(C)ccn1	11
Cc1ccc(C(=O)NCCc2csc(C)n2)cc1	-5.77
CCN(CC)CCn1c(NS(=O)(=O)c2ccc(C)cc2)nc2ccccc21	-17.8

SMILES	hERG current change (%, negative = inhibition) at 1uM [%]
Cc1ccccc1C(=O)NCCN1CCOCC1.Cl	6.1
Cc1c(C#N)c2ncn(CC#N)c(=O)c2n1-c1ccccc1	5.01
O=C(c1ccc(Cl)c(S(=O)(=O)N2CCCC2)c1)N1CCCC(C(F)(F)F)C1 (stereo not drawn)	-4.61
Cc1ccc([N+](=O)[O-])cc1S(=O)(=O)NCCc1cn2ccccc2n1	9.23
CC(C)C(NC(=O)c1ccccc1Br)c1ccccc1 (stereo not drawn)	9.81
CC(C)(C)c1ccc(S(=O)(=O)N(CCCN2CCOCC2)Cc2cccs2)cc1.O=C(O)C(=O)O	2.93
COc1ccc(Cl)cc1S(=O)(=O)N1CCN(C)CC1	11.3
Cl.Cn1cccc1CNCc1ccc(F)cc1	13.7
CC(C)OC(=O)c1ccc(NC(=O)Cn2c(-c3nonc3N)nc3ccccc32)cc1	17.1
COc1ccc(C(=O)c2nc3ccccc3n2C(C)C)cc1	5.44
COc1cccc(C(=O)NCc2ccco2)c1OC	10.8
CCN(CC)c1ccc(/C=N/NC(=O)c2c[nH]c3ccccc23)cc1	9.89
Cc1ccc(CNC(=O)C(NS(=O)(=O)c2cccc3nsnc23)c2ccccc2)cc1 (stereo not drawn)	-8.32
COc1ccc(CN(C)CC(=O)N2CCc3ccccc3C2)cc1	-2.69
Cc1cccc(C(C)C)c1NC(=O)COC(=O)CN1C(=O)C2CC=CCC2C1=O (stereo not drawn)	16
C#CCSc1ncc(-c2ccccc2)cn1	10.2
C/C(=N\NC(=O)C1(C)CC1(Br)Br)c1ccc(C)cc1C (stereo not drawn)	12.9
COC(=O)C1C(c2ccc(OC)cc2)C(C(=O)OC)S(=O)(=O)C(CCN2CCCCC2)S1(=O)=O (stereo not drawn)	7.99
Cc1ccccc1CN1C(=O)[C@@H]2Cc3c([nH]c4ccccc34)C(C)(C)N2C1=O	12.9
COC(=O)Cc1cn(-c2ncc(C(F)(F)F)cc2Cl)c2ccccc12	13.7
S=c1[nH]nc(-c2ccc(Cl)cc2Cl)n1Cc1ccccc1	4.66
Cc1ccnc(NC(=O)c2cccc([N+](=O)[O-])c2C)c1	-4.11
Cc1ccc(S(=O)(=O)N2CCC(C(=O)N[C@@H](C)C(=O)NCCc3ccccc3)CC2)cc1	13.4

SMILES	hERG current change (%, negative = inhibition) at 1uM [%]
Cc1c(Cl)cccc1N1C(=O)CC(NNC(=O)c2cccnc2)C1=O (stereo not drawn)	15.9
CCCCCCCCCCOC(=O)Cn1c(COc2ccccc2)[n+](C)c2ccccc21.[Cl-]	-46.5
O=c1c2c(c(-c3ccccc3)nn1Cc1ccccc1)CCCC2	8.22
O=C(CSc1nnc(-c2ccncc2)o1)Nc1ccc(F)c(F)c1	1.5
Nc1cc(C(=O)OCC(=O)NC(c2ccccc2)c2ccccc2)ccc1Cl	10
CCOc1ccc(NC(=O)CC2C(=O)N(c3ccccc3)C(=O)N2CCOC)cc1 (stereo not drawn)	6.77
COc1cc(/C=N/n2c(-c3ccc4c(c3)NC(=O)CO4)csc2=Nc2cccc(C)c2)ccc1O	-5.39
CN(C)S(=O)(=O)c1cccc(NC(=S)NN=C(Cc2ccccc2)Cc2ccccc2)c1	-4.13
O=C(Nc1ccc(NC(=O)C2CC2)nc1)c1cccc(F)c1	5.67
CCOC(=O)Nc1ccc2c(C)cc(=O)oc2c1	1.32
O=C(Nc1ccccc1)N1CCN(c2ccc(C(F)(F)F)cn2)CC1	-4.48
CCCCn1c(=O)c(CCC(=O)O)nc2ccccc21	12.4
OCC1(CCc2ccccc2)CCN(C/C=C/c2ccccc2)CC1	-86.4
CSc1nc2nccc(-c3ccc(Cl)cc3)n2n1	7.08
O=c1[nH]c(-c2cccnc2)nc2ccccc12	6.58
COc1ccc(/C=N/NC(=O)C(C)N(c2ccc(OC)cc2)S(C)(=O)=O)cc1 (stereo not drawn)	6.17
CCCn1c(SCC(=O)NC2CCCC2)nnc1-c1cccnc1	13.7
Nc1oc2ccccc2c(=O)c1-c1ccc2c(c1)OCO2	5.96
C/C(=N\Nc1ccc([N+](=O)[O-])cc1)c1ccc(C#N)cc1	13.2
CC(=O)Nc1ccc(NC(=O)CCCc2ccccc2)cc1	10.7
C=C(C)CNC(=S)N/N=C/c1ccco1	9.15
COc1cccc2cc(C(=O)NC3CC(C)(C)NC(C)(C)C3)c(=O)oc12	10.8
COc1ccccc1N1CCN(CC(=O)c2ccc3ccn(C(C)=O)c3c2)CC1	6.61

SMILES	hERG current change (%, negative = inhibition) at 1uM [%]
CC(=O)Nc1ccc(NS(=O)(=O)C(F)(F)F)cc1	21.2
COC(=O)c1ccc(OC(=O)c2cccnc2SC)cc1	18.3
CCCN(CC(=O)Nc1ccccc1C)C(=O)c1ccc(COc2ccccc2)cc1	14.9
Cc1ccc(NC(=S)NC(=O)c2c(-c3ccccc3Cl)noc2C)cc1	-9.22
CCOc1ccc(NC(=O)c2cccc(OC(=S)N3CCOCC3)c2)cc1	9.03
O=C(O)c1ccccc1C(=O)Nc1ccc(-n2ccc(C(F)(F)F)n2)cc1	12.4
CCOC(=O)c1c(C)[nH]c(C(=O)OCC(=O)Nc2cc(Cl)ccc2OC)c1C	-14.6
O=C(O)c1ccccc1C(=O)NCc1ccccc1	5.29
COc1cc(/C=N/NC(=O)C(=O)NCC2CCCO2)ccc1O (stereo not drawn)	14.4
O=C(CN(C(=O)Cn1nnc(-c2ccccc2F)n1)c1cnc2ccccc2c1)NCC1CCCO1 (stereo not drawn)	4.98
CN(CCc1cnn(C)c1)C(=O)C1CCC(=O)N(CC2CCCCC2)C1 (stereo not drawn)	20.3
COC(=O)[C@H]1C[C@H]1[C@@H](NC(=O)c1cccnc1)c1ccccc1	11.4
C=CCOc1ccc(C2C3=C(CCCC3=O)N(CC(=O)O)C3=C2C(=O)CCC3)cc1OCC	6.04
CCN1CCN(C(=O)c2cccc(OC3CCN(S(=O)(=O)N(C)C)CC3)c2)CC1	15.2
Fc1ccccc1COc1ccc(/C=N/n2cnnc2)cc1	12.7
CCCC1C(C#N)=C(N)Oc2n[nH]c(C(C)(C)C)c21 (stereo not drawn)	6.09
COc1ccc(C2C(C#N)=C(N)Oc3n[nH]c(-c4ccccn4)c32)c(OC)c1OC (stereo not drawn)	16.3
OC(C#Cc1ccccn1)c1cccs1 (stereo not drawn)	8.8
COc1ccc(-c2cc(CNC(=O)CCl)on2)cc1	13
COc1ccc(OC)c(NC(=O)Nc2ccccc2C)c1	13.7
CC(=O)N/C(=C\c1ccccc1)C(=O)OCC(=O)NC(C)C12CC3CC(CC(C3)C1)C2 (stereo not drawn)	7.75
